Measured values published in the BET-seq Pho4 binding data (Le et al. 2018).
This is one part of the list. These are noisy estimates, calculated here from bound and input reads.

Biological target: T1, Pho4 (S. cerevisiae) (UniProt P07270)
T1 sequence: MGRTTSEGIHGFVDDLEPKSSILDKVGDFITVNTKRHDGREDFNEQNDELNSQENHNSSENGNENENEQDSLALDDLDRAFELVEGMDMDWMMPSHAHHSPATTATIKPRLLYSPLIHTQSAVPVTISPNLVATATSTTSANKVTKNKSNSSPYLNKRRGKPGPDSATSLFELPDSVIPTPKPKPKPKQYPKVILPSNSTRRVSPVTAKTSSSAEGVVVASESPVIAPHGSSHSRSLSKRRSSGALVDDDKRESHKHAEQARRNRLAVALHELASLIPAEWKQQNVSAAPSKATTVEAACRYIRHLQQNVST
Assay: relative binding free energy (BET-seq); higher = weaker binding
Settings: reference: library average

| Sequence | relative binding free energy [kcal/mol] |
| --- | --- |
| GCAGTCACGTGTTGTT | 0.11 |
| AGTTTCACGTGTAGGG | 0.3 |
| TCTTGCACGTGGACTG | 0.07 |
| TTTGCCACGTGTTTGT | -0.01 |
| GAAAGCACGTGGGTTA | -0.17 |
| TGATGCACGTGTTTAG | -0.05 |
| AATGACACGTGGGTGC | -0.17 |
| GGTTGCACGTGGGCCG | -0.01 |
| TAAAACACGTGTGGGC | 0.19 |
| GATATCACGTGACTGG | 0.38 |
| GTCTCCACGTGTGGTA | 0.23 |
| ATTGACACGTGTTAAT | -0.15 |
| GGGAGCACGTGGTCGC | -0.14 |
| GAGCGCACGTGTAGAG | 0.1 |
| AGTCACACGTGATTGT | 0.18 |
| GTTGGCACGTGGTTCT | -0.07 |
| AATGGCACGTGCAGGT | -0.04 |
| TTTGTCACGTGGATGG | 0.16 |
| TTCATCACGTGGGGGC | -0.03 |
| GGTCGCACGTGATATT | 0.13 |
| CGCGTCACGTGGGAGA | 0.12 |
| TTGTGCACGTGTTAGG | -0.01 |
| GTTATCACGTGAAGTA | 0.39 |

| Sequence | relative binding free energy [kcal/mol] |
| --- | --- |
| AATGGCACGTGGAATA | -0.04 |
| GTTATCACGTGTCAGG | 0.25 |
| CGTAGCACGTGGGGAA | -0.27 |
| GTAGGCACGTGCGAGT | -0.11 |
| GATCGCACGTGTGTTT | 0.08 |
| GGGAGCACGTGATCGT | 0.1 |
| GGTATCACGTGCTTTA | 0.07 |
| AGGATCACGTGTGAGG | 0.24 |
| GGTGGCACGTGCTCTG | -0.1 |
| TGTCACACGTGTTTGG | 0.06 |
| AAGGTCACGTGATTGT | 0.22 |
| TTTTGCACGTGAAAAG | 0.1 |
| AATAACACGTGATGTT | 0.15 |
| AATGGCACGTGGTAGT | -0.15 |
| GATCTCACGTGGTGGT | 0.13 |
| GTAGACACGTGCAGTT | 0.12 |
| GGCTGCACGTGGGACT | 0.09 |
| TGGTTCACGTGTATGC | 0.25 |
| TTCTGCACGTGTACGG | 0.04 |
| TCAGTCACGTGGGGGA | -0.02 |
| TTAATCACGTGTGTCG | 0.11 |
| TTTTCCACGTGAGGGG | 0.34 |
| AGTTTCACGTGTTGCG | 0.38 |

| Sequence | relative binding free energy [kcal/mol] |
| --- | --- |
| TTTTACACGTGAAATG | 0.22 |
| GTTGGCACGTGGCCTG | -0.25 |
| TATTGCACGTGAGGTT | 0.17 |
| TTCTGCACGTGAGATG | 0.24 |
| TATGGCACGTGAATGG | 0.21 |
| GATTTCACGTGGGGGT | 0.26 |
| GTGCACACGTGGTGGG | -0.01 |
| TGTCTCACGTGGTTGT | 0.2 |
| CGGTACACGTGGTAGT | -0.13 |
| TTAGGCACGTGAGAGT | 0.11 |
| TGGGCCACGTGGATAG | -0.12 |
| ATGGCCACGTGTGTGA | -0.08 |
| GTTGGCACGTGCTGAA | -0.01 |
| TTTTGCACGTGCTAGT | -0.12 |
| TAGATCACGTGTTTAT | -0.06 |
| TTATGCACGTGCGTGC | -0.07 |
| GTGATCACGTGTGGGT | 0.22 |
| TTGAACACGTGATAGG | 0.06 |
| TGTTGCACGTGGGCTC | -0.21 |
| GGGTTCACGTGTATTT | 0.4 |
| GATAGCACGTGGAGGA | -0.09 |
| TTTGCCACGTGGTAGT | 0 |
| AAGTGCACGTGTCGTG | 0.02 |

| Sequence | relative binding free energy [kcal/mol] |
| --- | --- |
| GGGGCCACGTGGGACG | -0.16 |
| TTAAGCACGTGCTAGT | -0.12 |
| GGCTCCACGTGTGAGG | 0.1 |
| TCGGGCACGTGTGGGG | 0.06 |
| CGAAGCACGTGGAGTT | -0.06 |
| AGGCGCACGTGTATAG | -0.08 |
| GGCGGCACGTGATTGG | 0.09 |
| CGGGTCACGTGGTTCT | 0.08 |
| CCAGTCACGTGGGTTG | -0.03 |
| GAGGCCACGTGGGGGA | -0.14 |
| GGGTACACGTGATTAT | 0.1 |
| TCTATCACGTGTTTGT | -0.07 |
| GGATCCACGTGAAGGT | 0.42 |
| TTGGGCACGTGTATTT | 0.07 |
| ATGTTCACGTGTAGCA | 0.22 |
| TGTTCCACGTGGGGGC | -0.05 |
| TGTAGCACGTGTGCAA | -0.03 |
| AGTTTCACGTGGCAGG | 0.14 |
| TGTCTCACGTGTACGT | 0.17 |
| TTTGGCACGTGTAATT | 0.02 |
| CGCGGCACGTGGAGGT | -0.07 |
| GGAGTCACGTGAATTG | 0.33 |
| AATTTCACGTGGTGTA | 0.14 |

| Sequence | relative binding free energy [kcal/mol] |
| --- | --- |
| TTAGTCACGTGCGTTT | 0.15 |
| GTTCGCACGTGCATGT | 0.11 |
| TATCGCACGTGATTGT | -0.02 |
| TATTTCACGTGATTCA | 0.27 |
| ACTATCACGTGAATGG | 0.57 |
| ATGCTCACGTGATATT | 0.32 |
| ATGTACACGTGAGTGT | 0.24 |
| AGCGTCACGTGATAGT | 0.23 |
| ATAGTCACGTGCGATG | 0.1 |
| TGGTGCACGTGTGCAT | -0.02 |
| GGAACCACGTGTAGTG | 0.07 |
| TGGTGCACGTGAGCCG | 0.12 |
| GCTTGCACGTGAGTGT | 0.14 |
| GTTGGCACGTGTAAAT | 0.19 |
| GGTGGCACGTGAGCGG | 0.02 |
| GGAGACACGTGGTAGG | -0.05 |
| TAGGTCACGTGGTTGA | 0.03 |
| ATGAGCACGTGGCGTG | -0.2 |
| TGAGGCACGTGTGCAA | -0.06 |
| GGCTGCACGTGGGATG | -0.03 |
| GGTGTCACGTGGGATC | -0.03 |
| TGCAGCACGTGAAGGT | 0.19 |
| TTTCTCACGTGGTAGT | 0.2 |
